Out of some 310,000 compounds screened, about 2,200 (0.71%) showed an effect of 50% or more. Effects have a minus sign here. This is one part of the list.
target: human ether-à-go-go-related gene (hERG) potassium channel (human, UniProt Q12809); assay: primary screen, population patch clamp on CHO cells stably expressing hERG
Sequence (Q12809 whole entry, looked up): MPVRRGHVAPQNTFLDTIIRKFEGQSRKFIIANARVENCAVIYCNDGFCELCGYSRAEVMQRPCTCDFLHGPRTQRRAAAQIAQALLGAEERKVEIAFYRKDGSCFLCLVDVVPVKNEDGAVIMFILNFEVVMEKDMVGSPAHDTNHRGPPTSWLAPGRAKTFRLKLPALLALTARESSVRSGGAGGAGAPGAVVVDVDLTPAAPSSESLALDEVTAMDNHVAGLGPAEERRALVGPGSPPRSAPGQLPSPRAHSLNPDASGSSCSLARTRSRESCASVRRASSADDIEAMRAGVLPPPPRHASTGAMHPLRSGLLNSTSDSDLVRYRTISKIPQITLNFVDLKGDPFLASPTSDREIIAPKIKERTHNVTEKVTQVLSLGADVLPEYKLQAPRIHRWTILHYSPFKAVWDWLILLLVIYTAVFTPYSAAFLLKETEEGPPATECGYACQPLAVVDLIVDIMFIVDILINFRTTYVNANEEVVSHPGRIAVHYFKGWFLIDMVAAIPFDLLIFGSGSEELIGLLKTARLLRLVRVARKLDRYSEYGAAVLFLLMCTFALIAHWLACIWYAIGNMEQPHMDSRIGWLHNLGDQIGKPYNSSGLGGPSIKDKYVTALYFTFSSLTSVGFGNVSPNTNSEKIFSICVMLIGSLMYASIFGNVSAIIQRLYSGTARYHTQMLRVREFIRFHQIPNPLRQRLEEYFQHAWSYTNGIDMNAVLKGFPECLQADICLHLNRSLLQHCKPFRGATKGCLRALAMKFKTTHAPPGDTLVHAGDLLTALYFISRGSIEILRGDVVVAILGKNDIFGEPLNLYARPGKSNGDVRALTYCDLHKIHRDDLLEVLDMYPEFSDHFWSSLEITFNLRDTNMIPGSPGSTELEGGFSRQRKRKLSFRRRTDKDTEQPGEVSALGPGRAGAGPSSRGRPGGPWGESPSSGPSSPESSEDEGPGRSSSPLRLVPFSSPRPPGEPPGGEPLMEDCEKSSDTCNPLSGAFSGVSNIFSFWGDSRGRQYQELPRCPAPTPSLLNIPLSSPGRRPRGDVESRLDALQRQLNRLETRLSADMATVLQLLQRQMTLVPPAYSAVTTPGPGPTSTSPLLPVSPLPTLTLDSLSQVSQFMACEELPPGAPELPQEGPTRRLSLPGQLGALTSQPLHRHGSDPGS

| SMILES | hERG current change (%, negative = inhibition) at 1uM [%] |
| --- | --- |
| CCCCCC(O)c1cccc(OCc2ccc3ccccc3n2)c1 (stereo not drawn) | 12.6 |
| COc1ccc(CC(=O)N2N=C(c3ccncc3)CC2(O)C(F)(F)F)cc1 (stereo not drawn) | 11.7 |
| NC(=O)c1ccc(SCC(=O)OCC(=O)NC2CCCCCCC2)c([N+](=O)[O-])c1 | 9.16 |
| FC(F)(F)c1cnc(NNC(=S)Nc2ccccc2Cl)c(Cl)c1 | 10.6 |
| Cc1c(Cl)cccc1NC(=O)CC1NCCNC1=O (stereo not drawn) | 8.91 |
| Cc1cccc(NC(=O)C2COc3ccccc3O2)c1 (stereo not drawn) | 12.4 |
| Cc1nc2ccccn2c1/C(O)=C1\C(=O)C(=O)N(CCN2CCOCC2)C1c1cccnc1 (stereo not drawn) | 19.9 |
| COc1ccc(C2=CC(=O)CC(C)(C)C2)cc1 | 9.03 |
| COc1ccccc1CNC(=O)C1CC(=O)N(C2CCCC2)C1 (stereo not drawn) | 6.53 |
| CN1CCN(C(=S)c2ccc(N(C)C)cc2)CC1 | 13.1 |
| O=C(N1CCN(c2ccccn2)CC1)C(Cl)(Cl)Cl | -1.54 |
| C=CCNC(=O)Cn1nnc(-c2ccc(-c3ccc(OC)cc3)cc2)n1 | 15 |
| O=C(COC(=O)c1ccccc1NC(=O)c1ccco1)NC1CCS(=O)(=O)C1 (stereo not drawn) | 6.5 |
| Cc1ccc(/C=N/NC(=O)CNC(=O)COc2ccc(Cl)cc2)o1 | 9.17 |
| O=C(NCCc1ccccc1)C1CCCN(C(=O)NC2CCCCC2)C1 (stereo not drawn) | 2.4 |
| Cc1nc(-c2ccccn2)nc(N2CCOCC2)c1Cl | 12.1 |
| CC1CC(C)CN(S(=O)(=O)c2ccc3c(c2)CC(C)N3C(=O)C2CCC2)C1 (stereo not drawn) | 8.32 |
| COc1ccc(-c2nn(-c3ccccc3)cc2C(=O)N(C)CC(=O)Nc2cccc(F)c2)cc1 | 8.34 |
| O=S(=O)(Nc1ccccc1N1CCOCC1)c1ccc(Cl)cc1 | 2.29 |
| COC(=O)c1cc(N2C(=O)C3C4C=CC(CC4)C3C2=O)ccc1Cl (stereo not drawn) | 11.6 |
| COCc1cc(C)n(CC(=O)Nc2cc(C)cc(C)c2)c(=O)c1C#N | 2.72 |
| CCN(CC(=O)NC)S(=O)(=O)c1ccc(C)cc1 | 13.8 |
| C=CCn1c(Cc2cccs2)nnc1SCC(=O)Nc1cc(OC)cc(OC)c1 | 3.92 |

| SMILES | hERG current change (%, negative = inhibition) at 1uM [%] |
| --- | --- |
| Cc1ccccc1-n1nnnc1SCCCC(=O)c1ccc(F)cc1 | -0.258 |
| c1n[nH]c(SCCCCSc2ncn[nH]2)n1 | 10.9 |
| CCn1cc(/C=N/O)c(C)n1 | 14 |
| C=CCn1c(COc2ccc3c(c2)CCCC3)nnc1SCC(=O)Nc1cccc(SC)c1 | 11.6 |
| CC(C)Cc1ccc(C(C)C(=O)Nc2ccc(O)cc2)cc1 (stereo not drawn) | 8.53 |
| C=CCN1C(=O)CSc2ccc(C(=O)NCc3cccs3)cc21 | 5.21 |
| CCC(=NCCC(c1ccccc1)c1ccccc1)c1c(O)n(C)c(=O)n(C)c1=O | 2.97 |
| CCOC(=O)N1CCN(C(=O)c2ccc3c(=O)n(-c4ccc(OC)cc4)c(=S)[nH]c3c2)CC1 | 16.5 |
| O=C(c1cnn(-c2ccccc2)c1)c1cc(F)ccc1O | 14.5 |
| Cc1ccc(OCCCC(=O)ON=C(N)c2ccccc2C)cc1 | 8.65 |
| O=C(CCCn1c(=O)oc2ccccc21)N1CCN(c2ccc(F)cc2)CC1 | -35.4 |
| CC1CCCC(NC(=O)COC(=O)/C=C/c2ccco2)C1C (stereo not drawn) | 16.1 |
| CCOC(=O)N1CCC(NC(=O)c2cc(C(=O)Nc3cccc(C(F)(F)F)c3)ccc2CO)CC1 | 2.07 |
| O=C(COc1ccc(Cl)cc1)NCC(=O)N/N=C/c1cccs1 | 3.82 |
| COc1cccc(C(=O)O/N=C(\N)c2ccccn2)c1OC | 16.8 |
| COc1ccc(C(=O)Nc2cc(C(F)(F)F)ccc2-n2cncn2)cc1 | 10.2 |
| NC(=O)c1nnn(-c2ccc([N+](=O)[O-])cc2)c1-c1ccccc1 | -1.34 |
| Cc1ccc(-n2c(C)cc3c2CCCC3=O)cc1 | 4.8 |
| Oc1ccccc1CNn1cnnc1 | 14.3 |
| Cc1cccc(-c2nc(NCCCN3CCOCC3)c3ccccc3n2)c1 | -6.19 |
| COCCCN1C(=O)C(=O)/C(=C(/O)c2ccc(S(=O)(=O)N3CCCCC3)cc2)C1c1ccc(OC)cc1 (stereo not drawn) | 13.8 |
| COc1cc(/C=N/NC(=O)c2ccc(Cl)cc2)ccc1OCC(=O)N1CC(C)OC(C)C1 (stereo not drawn) | 13.1 |
